# Measured values taken from the BET-seq Pho4 binding data (Le et al. 2018).
# This is one part of the list. Values were computed here from the reads of four pooled replicates and scatter widely.
# Target: T1, Pho4 (S. cerevisiae) (UniProt P07270)
# T1 sequence: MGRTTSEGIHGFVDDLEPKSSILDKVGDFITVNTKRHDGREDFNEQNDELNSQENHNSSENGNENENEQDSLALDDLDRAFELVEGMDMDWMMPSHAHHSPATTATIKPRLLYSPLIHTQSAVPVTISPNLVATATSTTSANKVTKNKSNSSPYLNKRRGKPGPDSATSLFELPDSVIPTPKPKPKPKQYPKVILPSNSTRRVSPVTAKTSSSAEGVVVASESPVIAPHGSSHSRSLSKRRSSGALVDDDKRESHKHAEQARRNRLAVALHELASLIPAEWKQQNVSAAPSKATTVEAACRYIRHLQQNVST
# Assay: relative binding free energy (BET-seq); higher = weaker binding
# Conditions: reference: library average
row,Sequence,relative binding free energy
1,GGAGGCACGTGGTAGG,-0.18 kcal/mol
2,GATGTCACGTGGTTAA,0.05 kcal/mol
3,TGTAACACGTGTGTCA,0.09 kcal/mol
4,TGGAACACGTGAGCTG,0.23 kcal/mol
5,TGGTGCACGTGGGGGT,-0.14 kcal/mol
6,TATCTCACGTGGTATA,0.19 kcal/mol
7,TGAGACACGTGGGTGC,-0.06 kcal/mol
8,TTGTTCACGTGTAGTC,0.16 kcal/mol
9,ATCGGCACGTGGGGAA,-0.08 kcal/mol
10,AGGGGCACGTGCGCTT,-0.26 kcal/mol
11,GAGACCACGTGGTTGT,-0.01 kcal/mol
12,TTAGTCACGTGTTATG,0.23 kcal/mol
13,AGCGCCACGTGGGGTT,-0.33 kcal/mol
14,TATGGCACGTGTGGGC,-0.08 kcal/mol
15,AGGGACACGTGGAGAT,-0.04 kcal/mol
16,GTATTCACGTGGAGTC,0.25 kcal/mol
17,TGTATCACGTGGTGGA,0.09 kcal/mol
18,CTTTTCACGTGTGTGG,0.2 kcal/mol
19,CGTGTCACGTGAAGTA,0.25 kcal/mol
20,TGAGGCACGTGGCTCG,-0.15 kcal/mol
21,GGTGTCACGTGTTTGG,0.24 kcal/mol
22,GAAGTCACGTGTTGGC,0.27 kcal/mol
23,TGGGTCACGTGTTCTG,0.19 kcal/mol
24,TTTTTCACGTGGTGAG,0.2 kcal/mol
25,AATGACACGTGGTGGG,0.02 kcal/mol
26,GTGAACACGTGGGGTA,-0.22 kcal/mol

row,Sequence,relative binding free energy
1,TTGGCCACGTGCGTGT,-0.23 kcal/mol
2,GTTGTCACGTGATTAG,0.21 kcal/mol
3,CTATTCACGTGATTTA,0.35 kcal/mol
4,TTGATCACGTGCATTT,0.23 kcal/mol
5,AGGATCACGTGTTCGT,0.07 kcal/mol
6,TTAGTCACGTGAGGAC,0.29 kcal/mol
7,CGTCGCACGTGATGTG,0.15 kcal/mol
8,ATAGGCACGTGGCCGG,-0.17 kcal/mol
9,AGTGACACGTGGAGGT,-0.09 kcal/mol
10,AGAAGCACGTGGGTGA,-0.23 kcal/mol
11,GTTTGCACGTGTGGTT,0.18 kcal/mol
12,TTGTGCACGTGGGCAG,-0.17 kcal/mol
13,GGATTCACGTGGGCGG,0.32 kcal/mol
14,GGCGGCACGTGGAGAG,0.11 kcal/mol
15,TTTGACACGTGGACTT,-0.03 kcal/mol
16,AGAAGCACGTGGACGG,0.04 kcal/mol
17,AGAAACACGTGGTGGT,-0.05 kcal/mol
18,TTAGACACGTGTGAAT,0.06 kcal/mol
19,TTATGCACGTGGAGAG,-0.03 kcal/mol
20,GGGTACACGTGTCTTG,0.11 kcal/mol
21,AAGGCCACGTGAGTGG,0.04 kcal/mol
22,CAGTCCACGTGGTGGG,-0.01 kcal/mol
23,TAAATCACGTGAAGGT,0.3 kcal/mol
24,CTAGTCACGTGGATGT,0.23 kcal/mol
25,ATGTGCACGTGTGTCA,-0.06 kcal/mol
26,TTTCACACGTGGGAAT,0.17 kcal/mol

row,Sequence,relative binding free energy
1,GGAGCCACGTGAGGGA,0.17 kcal/mol
2,TAGTCCACGTGCGGGG,0.13 kcal/mol
3,GGGTGCACGTGAAATG,0.25 kcal/mol
4,ACTGGCACGTGGCGAG,-0.18 kcal/mol
5,TAGTACACGTGTGGAA,0.14 kcal/mol
6,CGGGTCACGTGCTATT,0.21 kcal/mol
7,TAGTTCACGTGCAGGA,0.2 kcal/mol
8,ATAGGCACGTGTAGTG,-0.04 kcal/mol
9,TGAGGCACGTGTGATA,-0.02 kcal/mol
10,TAGTTCACGTGTCGAG,0.32 kcal/mol
11,TAAATCACGTGTTGTG,0.15 kcal/mol
12,GGTTGCACGTGAAACG,0.25 kcal/mol
13,AGCTTCACGTGGGGGC,0.15 kcal/mol
14,ATTGTCACGTGTGCCT,0.02 kcal/mol
15,TAGGACACGTGAAGTT,0.34 kcal/mol
16,AATGGCACGTGCTTGA,-0.11 kcal/mol
17,TTGTCCACGTGATGGA,0.23 kcal/mol
18,AACGGCACGTGCAGGG,-0.13 kcal/mol
19,GTTTGCACGTGATCTT,0.15 kcal/mol
20,GGCAGCACGTGGCTGG,-0.16 kcal/mol
21,TGCTGCACGTGGGTTC,-0.09 kcal/mol
22,GAGATCACGTGATTTA,0.47 kcal/mol
23,GGGTGCACGTGTTGCA,0.05 kcal/mol
24,GGTGACACGTGAGGGT,0.22 kcal/mol
25,GATTTCACGTGGCGGT,0.33 kcal/mol
26,AGTAACACGTGTATAG,0.04 kcal/mol

row,Sequence,relative binding free energy
1,TGGTCCACGTGGGTAG,-0.07 kcal/mol
2,GGTGGCACGTGATTTA,0.18 kcal/mol
3,TAGGGCACGTGATAGT,-0.07 kcal/mol
4,CTGGTCACGTGTTAGA,0.11 kcal/mol
5,GAGAGCACGTGGGGGC,-0.19 kcal/mol
6,CGATTCACGTGGCGGG,0.2 kcal/mol
7,CGTTTCACGTGATGAA,0.25 kcal/mol
8,TAGGCCACGTGTGTTG,-0.01 kcal/mol
9,AATTGCACGTGAGCGG,0.02 kcal/mol
10,GGGTGCACGTGGGGTT,-0.08 kcal/mol
11,GGTTTCACGTGGGATC,0.34 kcal/mol
12,CCGGTCACGTGGGTTT,-0.01 kcal/mol
13,TGTGCCACGTGGGTTT,-0.14 kcal/mol
14,CTGGGCACGTGCGGTG,-0.11 kcal/mol
15,GATCTCACGTGGTGTA,0.28 kcal/mol
16,AGGTTCACGTGGTAGG,0.29 kcal/mol
17,TATGTCACGTGATGGG,0.23 kcal/mol
18,AGTTGCACGTGGATAG,0.02 kcal/mol
19,TTTTGCACGTGATATA,0.09 kcal/mol
20,CTTAACACGTGTGGAT,0.03 kcal/mol
21,TATGGCACGTGCTTAA,0 kcal/mol
22,GTGGTCACGTGTTACA,0.17 kcal/mol
23,TATGCCACGTGGTTTA,-0.2 kcal/mol
24,CTTATCACGTGGATTT,0.23 kcal/mol
25,TTTGGCACGTGGGTTG,-0.17 kcal/mol
26,ATTATCACGTGCAGAT,0.19 kcal/mol

row,Sequence,relative binding free energy
1,GGTTGCACGTGCGGTC,-0.01 kcal/mol
2,GAGTACACGTGGGATT,0.13 kcal/mol
3,TAGGTCACGTGTGAAG,0.19 kcal/mol
4,TGGCACACGTGTTGAT,0.12 kcal/mol
5,AACGGCACGTGGGTTA,-0.17 kcal/mol
6,CGGGGCACGTGGATAT,0.09 kcal/mol
7,ATTATCACGTGGTTAT,0.11 kcal/mol
8,TGTACCACGTGTTTGG,-0.2 kcal/mol
9,AGGTGCACGTGATGGG,0.1 kcal/mol
10,TTGTTCACGTGTCGCT,0.11 kcal/mol
11,AGGTTCACGTGCGGGA,0.09 kcal/mol
12,TATAGCACGTGGAGGT,-0.17 kcal/mol
13,GGCAACACGTGGTTTT,0.08 kcal/mol
14,TTCAGCACGTGTAGGA,-0.1 kcal/mol
15,ACATTCACGTGGGTTG,0 kcal/mol
16,GGGGGCACGTGTTGTA,0 kcal/mol
17,TGCGTCACGTGTTAAA,0.12 kcal/mol
18,TCGTACACGTGGTTAT,0.09 kcal/mol
19,ATGGACACGTGCGGAG,0.02 kcal/mol
20,GGGAGCACGTGGGCAA,-0.14 kcal/mol
21,GTAAACACGTGCTGTG,0.06 kcal/mol
22,ATTTGCACGTGTTAAG,0.11 kcal/mol
23,CGATACACGTGGGAGG,-0.02 kcal/mol
24,AGTTGCACGTGGCCTT,-0.2 kcal/mol
25,TAGGACACGTGATGAG,0.21 kcal/mol
26,TTGGTCACGTGTGGCT,0.26 kcal/mol

row,Sequence,relative binding free energy
1,CGTGACACGTGTTTAT,0.17 kcal/mol
2,CTTGGCACGTGAGCGG,0.12 kcal/mol
3,ATTGTCACGTGTGTAA,0.09 kcal/mol
4,TGGAGCACGTGTTGTT,-0.05 kcal/mol
5,TGGGACACGTGGGCGA,-0.16 kcal/mol
6,ACCGGCACGTGTGGGT,-0.06 kcal/mol
7,GAGTGCACGTGCGCGT,-0.09 kcal/mol
8,AATGTCACGTGTCGGT,-0.03 kcal/mol
9,TGGGGCACGTGGATTT,0.04 kcal/mol
10,TTCGGCACGTGAATTG,0.11 kcal/mol
11,AGGTTCACGTGAACGG,0.35 kcal/mol
12,ATGAGCACGTGAGTGT,0.03 kcal/mol
13,TATTGCACGTGTTATC,-0.04 kcal/mol
14,GGTTTCACGTGTCGTT,0.28 kcal/mol
15,CGGGCCACGTGTTAGT,-0.05 kcal/mol
16,GGATGCACGTGGGGTA,-0.18 kcal/mol
17,TTAGTCACGTGAAGTC,0.39 kcal/mol
18,GTGATCACGTGGTCTA,0.19 kcal/mol
19,ATCTGCACGTGTTAGA,0 kcal/mol
20,ACTGTCACGTGTGGAG,-0.08 kcal/mol
21,GGTTTCACGTGCGCTG,0.18 kcal/mol
22,CTTAGCACGTGGGTCT,-0.13 kcal/mol
23,ATGGGCACGTGGATCT,-0.23 kcal/mol
24,GTCGTCACGTGGAGTA,0.02 kcal/mol
25,GTGTTCACGTGTTGGG,0.28 kcal/mol
26,GAGGGCACGTGATTAG,-0.01 kcal/mol

row,Sequence,relative binding free energy
1,TGCAGCACGTGGGTGC,-0.33 kcal/mol
2,GAGTCCACGTGGGGTT,0.06 kcal/mol
3,GAGTGCACGTGGGCTA,-0.09 kcal/mol
4,TTAGACACGTGAGGTT,0.28 kcal/mol
5,GAATGCACGTGTATTT,0.08 kcal/mol
6,ATTGTCACGTGGGGAT,0.04 kcal/mol
7,AAGTGCACGTGGGGGT,-0.25 kcal/mol
8,TGCATCACGTGGTGCG,0.13 kcal/mol
9,TATTTCACGTGGATAA,0.36 kcal/mol
10,CTTGTCACGTGTGCGT,-0.08 kcal/mol
11,GGGAGCACGTGGTAAG,-0.07 kcal/mol
12,TGTTGCACGTGTCTTA,0.1 kcal/mol
13,ATTGCCACGTGTGATG,0.03 kcal/mol
14,TGGATCACGTGTGAGC,0.16 kcal/mol
15,AGTTTCACGTGTAACT,0.28 kcal/mol
16,AGTATCACGTGATGCT,0.25 kcal/mol
17,AGGTCCACGTGTCAGG,0.11 kcal/mol
18,CATGGCACGTGTTACT,0.13 kcal/mol
19,TTTTTCACGTGCGGGG,0.25 kcal/mol
20,GTGAGCACGTGTGAAA,0.05 kcal/mol
21,GAGCGCACGTGGTTCG,0.12 kcal/mol
22,TCGGGCACGTGAAAGT,0.26 kcal/mol
23,TTACGCACGTGGTGCG,-0.29 kcal/mol
24,GTTTGCACGTGCGTAT,0.02 kcal/mol
25,TCAGTCACGTGTAGGG,0.05 kcal/mol
26,GAGAACACGTGTTTTT,0.4 kcal/mol

row,Sequence,relative binding free energy
1,TGGTTCACGTGCGGCT,0.26 kcal/mol
2,TATCTCACGTGTTCGT,0.15 kcal/mol
3,CCGGGCACGTGTTAGG,-0.15 kcal/mol
4,GTTCGCACGTGTAAGT,0.17 kcal/mol
5,TCTCTCACGTGGGGTA,0.05 kcal/mol
6,TGCGGCACGTGTGGAG,0.01 kcal/mol
7,GACGACACGTGTGTTT,0.27 kcal/mol
8,GCAGCCACGTGGTGTG,-0.13 kcal/mol
9,ATTTACACGTGAGAAG,0.48 kcal/mol
10,TTGGGCACGTGGTTTT,0.09 kcal/mol
11,AGCGGCACGTGGGAAG,-0.19 kcal/mol
12,AAGCGCACGTGTGCGT,-0.02 kcal/mol
13,GTATACACGTGTATAG,0.01 kcal/mol
14,GATGGCACGTGAAGGT,0.34 kcal/mol
15,TGGGCCACGTGGTTAG,-0.09 kcal/mol
16,TTGCCCACGTGTTGTA,-0.09 kcal/mol
17,CTTTCCACGTGTTAGT,0.21 kcal/mol
18,GTGGACACGTGTGTCA,0 kcal/mol
19,GGGAGCACGTGCTGTG,-0.1 kcal/mol
20,CGAGTCACGTGGTTAA,0.08 kcal/mol
21,TTACACACGTGTTTTA,0.03 kcal/mol
22,TTCTGCACGTGGTTCA,0.07 kcal/mol
23,ATTCACACGTGTATTT,0.28 kcal/mol
24,AAAGTCACGTGGTGTT,0.1 kcal/mol
25,CACTTCACGTGGTTGT,0.2 kcal/mol
26,GGAAGCACGTGTAGTG,-0.17 kcal/mol

row,Sequence,relative binding free energy
1,ATAATCACGTGGTCTG,0.14 kcal/mol
2,TAGGACACGTGCTATT,0.05 kcal/mol
3,CTTTGCACGTGTGTCG,-0.01 kcal/mol
4,TGCATCACGTGGCGTA,0.16 kcal/mol
5,GACGGCACGTGGGGGG,-0.14 kcal/mol
6,AAAGGCACGTGGGGTC,-0.21 kcal/mol
7,GGGTTCACGTGTTTCA,0.18 kcal/mol
8,GGGCGCACGTGGGTGT,-0.01 kcal/mol
9,AGGTACACGTGCGAGG,-0.02 kcal/mol
10,GGTGTCACGTGGATGC,0.08 kcal/mol
11,AGTAACACGTGGGTTG,-0.07 kcal/mol
12,TTGGACACGTGGCGAG,-0.04 kcal/mol
13,TCTTACACGTGGTGTT,0.12 kcal/mol
14,CGGTGCACGTGGTCAT,-0.05 kcal/mol
15,TAAGACACGTGAGGTA,0.32 kcal/mol
16,ATAGGCACGTGACAGG,-0.06 kcal/mol
17,TGGTGCACGTGGCGCC,-0.05 kcal/mol
18,TCATTCACGTGGAGGT,0.24 kcal/mol
19,TTTCTCACGTGGATGG,0.18 kcal/mol
20,GTTGCCACGTGAGGTG,0.02 kcal/mol
21,GTTTCCACGTGACGTG,0.33 kcal/mol
22,AAATACACGTGGTTGG,-0.15 kcal/mol
